Data taken from the supplement of paper PMC9174493.
The list shows a part of the results. Single values of this set are uncertain. Values with irradiation are relative to irradiated vehicle.

Experiments:
A549-Dual [1] = test: NF-kB reporter (SEAP) activity, viability-corrected, relative to vehicle (fold change vs vehicle); higher = more activation of STING-IRF / NF-kB immune response reporter
A549-Dual [2] = test: ISRE reporter (Lucia luciferase) activity, viability-corrected, relative to vehicle (fold change vs vehicle); higher = more activation of STING-IRF / NF-kB immune response reporter
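For NF-kB reporter (SEAP) activity, viability-corrected, relative to vehicle in this document: viability correction based on the alamar blue assay, with concentrations leaving 10% survival or less dropped.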

Compound | NF-kB reporter (A549-Dual [1]; 0.1 µM, irradiation: 8 Gy/4 fr) | NF-kB reporter (A549-Dual [1]; 0.1 µM, irradiation: none) | NF-kB reporter (A549-Dual [1]; 0.3 µM, irradiation: 8 Gy/4 fr) | NF-kB reporter (A549-Dual [1]; 0.3 µM, irradiation: none) | NF-kB reporter (A549-Dual [1]; 1 µM, irradiation: 8 Gy/4 fr) | NF-kB reporter (A549-Dual [1]; 1 µM, irradiation: none) | NF-kB reporter (A549-Dual [1]; 3 µM, irradiation: 8 Gy/4 fr) | NF-kB reporter (A549-Dual [1]; 3 µM, irradiation: none) | NF-kB reporter (A549-Dual [1]; 10 µM, irradiation: 8 Gy/4 fr) | NF-kB reporter (A549-Dual [1]; 10 µM, irradiation: none) | ISRE reporter (A549-Dual [2]; 0.1 µM, irradiation: 8 Gy/4 fr) | ISRE reporter (A549-Dual [2]; 0.1 µM, irradiation: none) | ISRE reporter (A549-Dual [2]; 0.3 µM, irradiation: 8 Gy/4 fr) | ISRE reporter (A549-Dual [2]; 0.3 µM, irradiation: none) | ISRE reporter (A549-Dual [2]; 1 µM, irradiation: 8 Gy/4 fr) | ISRE reporter (A549-Dual [2]; 1 µM, irradiation: none) | ISRE reporter (A549-Dual [2]; 3 µM, irradiation: 8 Gy/4 fr) | ISRE reporter (A549-Dual [2]; 3 µM, irradiation: none) | ISRE reporter (A549-Dual [2]; 10 µM, irradiation: 8 Gy/4 fr) | ISRE reporter (A549-Dual [2]; 10 µM, irradiation: none)
O=C1OC(OC(=O)c2cccnc2Nc2cccc(C(F)(F)F)c2)c2ccccc21 (stereo not given) [Talniflumate] | 0.945 | 1.08 | 1 | 0.868 | 1.01 | 0.773 | 1.07 | 0.845 | 0.765 | 0.998 | 1.01 | 0.856 | 0.853 | 0.626 | 0.692 | 0.514 | 0.729 | 0.788 | 0.659 | 0.863
O=C(CCCCCCC(=O)Nc1ccccc1)NO [Vorinostat (SAHA, MK0683)] | 0.961 | 1.15 | 0.953 | 1.36 | 0.732 | 1.78 | 1.2 | 1.18 | 1.62 | 2.2 | 1.02 | 1.48 | 1.07 | 1.83 | 0.521 | 1.63 | 0.105 | 0.495 | 0.0933 | 0.661
Cl.N=C1CCCN1Cc1[nH]c(=O)[nH]c(=O)c1Cl [Tipiracil hydrochloride] | 1.14 | 1.25 | 0.996 | 1.31 | 0.943 | 1.64 | 1.06 | 1.43 | 0.995 | 1.14 | 1.1 | 1.31 | 1.1 | 1.17 | 1.1 | 1.24 | 1.21 | 1.04 | 1.07 | 1.05
CNCC(O)c1ccc(O)c(O)c1.O=C(O)C(O)C(O)C(=O)O (stereo not given) [Epinephrine bitartrate] | 1.38 | 1.28 | 0.992 | 1.55 | 1.02 | 1.79 | 1.15 | 1.53 | 1.07 | 1.08 | 1.27 | 1.25 | 1.04 | 1.31 | 1.04 | 1.23 | 1.23 | 1.23 | 1.18 | 1.11
CCCC1CC(C(=O)NC(C(C)O)C2OC(SC)C(O)C(O)C2O)N(C)C1.Cl (stereo not given) [Lincomycin HCl] | 0.988 | 1.03 | 0.948 | 1.06 | 1.03 | 1.44 | 0.896 | 1.11 | 0.955 | 1.1 | 0.997 | 1.02 | 1.18 | 1.11 | 1.05 | 1.16 | 1.04 | 0.929 | 1.02 | 1.08
NC(=O)c1cnc2[nH]ccc2c1NC1C2CC3CC1CC(O)(C3)C2 (stereo not given) | 0.947 | 1.22 | 1.02 | 1.33 | 1.27 | 1.06 | 0.771 | 2.89 | 2.59 | 1.23 | 0.578 | 0.857 | 0.624 | 0.423 | 0.349 | 0.373 | 0.377 | 0.397 | 0.0629 | 0.262
